In PubChem BioAssay AID504845 (National Center for Advancing Translational Sciences (NCATS), 2011):
Screen size: about 390,000 compounds; about 150 (0.038%) were called active. The shares of active, inactive and inconclusive entries below differ from those in the screen. Calls come from the whole dose curve; as a rule, active = well fitted inhibition curve with a large enough effect; inconclusive = small, poorly fitted or top-dose-only effect; inactive = no such curve, though single readings can be large or run the other way. Where the call is inconclusive, the potency comes from a doubtful curve fit.

target: Regulator of G-protein signaling 4 (Homo sapiens) (UniProt P49798); test: Inhibitors of Regulator of G Protein Signaling (RGS) 4: qHTS; settings: Transcreener GDP fluorescence polarization, RGS4-accelerated GTP hydrolysis; series mostly up to 114 µM; note: nearly all actives have a fitted effect of over 75% in size
Sequence of UniProt P49798 (P49798 whole entry, looked up): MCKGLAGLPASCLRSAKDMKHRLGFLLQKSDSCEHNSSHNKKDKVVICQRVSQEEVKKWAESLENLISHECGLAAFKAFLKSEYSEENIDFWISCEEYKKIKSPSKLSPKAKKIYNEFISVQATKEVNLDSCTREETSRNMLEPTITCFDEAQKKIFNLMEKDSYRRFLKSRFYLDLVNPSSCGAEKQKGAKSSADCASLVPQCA
How it was run: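 MLSMR compounds (23 nl, pin-transferred) preincubated 10 min at room temperature with a 500nM (2x) first reagent, then RGS4 at 900nM (2x) plus Transcreener GDP mix added; fluorescence polarization (620/688 nm) read before and after 90 min at 30 °C.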
% is set by controls: 0 for no effect and ±100 for the full control effect; potency is the fitted concentration of half-maximal effect; tags give direction and shape of the fitted curve.

Structure (SMILES) | Potency | activity change, negative = inhibition
CCCCCCCCCCCC(=O)O | inactive | –
Clc1ccc(-c2nc3sccn3c2/C=N/OCc2ccc(Cl)c(Cl)c2)cc1 | active: 2.99 µM | –
COc1cc(/C=N/NC(=O)COc2ccccc2[N+](=O)[O-])ccc1OC(=O)c1ccco1 | inconclusive: 79.4 µM [inhibitor, partial curve, poor fit] | –
CCC1CO/C(=C(\C(Cl)=C(Cl)Cl)[N+](=O)[O-])N1 (stereo unspecified) | inconclusive: 50.1 µM [inhibitor, partial curve, poor fit] | –
O=C(N/N=C/c1cccc([N+](=O)[O-])c1)c1cc(-c2ccc3c(c2)OCO3)n[nH]1 | inconclusive: 79.4 µM [inhibitor, partial curve, poor fit] | –
O=C(NCCS(=O)(=O)N1CCN(c2ccccc2)CC1)c1cccc(F)c1 | inactive | –
CN(C)c1ccc(-n2cccc2/C=C/[N+](=O)[O-])cc1 | inconclusive: 10 µM [inhibitor, full curve, poor fit] | –
O/C(=C\c1nc2ccccc2nc1/C=C(\O)c1ccccc1)c1ccccc1 | inconclusive: 89.1 µM [inhibitor, partial curve, poor fit] | –
COc1ccc(S(=O)(=O)Nc2nnc(Cc3ccc(OC)c(OC)c3)s2)cc1 | inconclusive: 79.4 µM [inhibitor, partial curve, poor fit] | –
CC(=O)Nc1ccc(NC(=O)C(C)OC(=O)c2cccc(S(=O)(=O)N3CCCCCC3)c2)cc1 (stereo unspecified) | inconclusive: 79.4 µM [inhibitor, partial curve, poor fit] | –
COc1ccc(Cl)cc1C(=O)CSc1nc(N)cc(N)n1 | inconclusive: 89.1 µM [inhibitor, partial curve, poor fit] | –
COc1ccccc1C1CCN(C(=O)c2ccccc2)CC1 | inconclusive: 79.4 µM [inhibitor, single point] | –
CCCCCC(=O)/C=C/C=C\C/C=C\C/C=C\CCCC(=O)O | inconclusive: 0.67 µM [inhibitor, full curve, poor fit] | –
Cc1ccc(C(=O)/C=C\C(=O)c2ccc(C)cc2)cc1 | inconclusive: 50.1 µM [inhibitor, partial curve, poor fit] | –
CCN(Cc1ccccc1)C(=O)c1cn(-c2cccc(OC)c2)c(=O)c2ccccc12 | inconclusive: 56.2 µM [inhibitor, partial curve, poor fit] | –
CC1Cc2ccccc2N1C(=O)CSc1nnc(CNc2ccccc2)o1 (stereo unspecified) | inactive | –
CCOc1ccccc1CNS(=O)(=O)c1ccc2c(c1)oc(=O)n2C | inconclusive: 70.8 µM [inhibitor, partial curve, poor fit] | –
COc1cc(/C=N/NC(N)=S)ccc1OCC(=O)Nc1ccc(C)c(C)c1 | inactive | –
COC(CN(C(=O)CCl)C(C(=O)NC1CCCCC1)c1ccccc1C)OC (stereo unspecified) | inactive | –
O=C(Nc1ccc2ncccc2c1)c1ccccc1Br | inconclusive: 50.1 µM [inhibitor, partial curve, poor fit] | –
COc1ccccc1N(CCC#N)C(=S)Nc1ccc(S(=O)(=O)N2CCOCC2)cc1 | inconclusive: 31.6 µM [inhibitor, full curve, poor fit] | –
CCN(CC(=O)N1CCC(C)CC1)S(=O)(=O)c1ccc(C)cc1 | inconclusive: 89.1 µM [inhibitor, single point] | –

Structure (SMILES) | Potency | activity change, negative = inhibition
CCCN1C(=O)C(=O)c2cc(Cl)ccc21 | inconclusive: 100 µM [inhibitor, single point] | –
CCCOc1ccc(CN2C(=O)C(=O)c3cccc(C)c32)cc1 | inconclusive: 31.6 µM [inhibitor, full curve, poor fit] | –
COc1ccc(-c2nc3ccccc3s2)cc1NC(=O)c1cccc(F)c1 | inactive | –
COc1cccc(CNC(=O)C2CC(=O)N(C3CCCCC3)C2)c1 (stereo unspecified) | inactive | –
Cc1ccc(S(=O)(=O)Nc2ccccc2N=Cc2ccc([N+](=O)[O-])cc2[N+](=O)[O-])cc1 | inconclusive: 89.1 µM [inhibitor, partial curve, poor fit] | –
Cc1cccc2cc(C(c3nnnn3C(C)(C)C)N(Cc3ccco3)CC3CCCO3)c(=O)[nH]c12 (stereo unspecified) | inactive | –
CN1C(=O)C(=C2CCCCCC2)SC1=S | inconclusive: 56.2 µM [inhibitor, partial curve, poor fit] | –
COc1ccc2oc(C(=O)OCC(=O)NC(=O)NC(C)C)c(C)c2c1 | inactive | –
Cc1ccc(NC(=O)CN2C(=O)c3ccccc3Sc3ccc(C(=O)N4CCOCC4)cc32)cc1C | inconclusive: 79.4 µM [inhibitor, partial curve, poor fit] | –
COc1cc(Nc2nc3c(S(=O)(=O)c4cccc(Cl)c4)nnn3c3ccsc23)cc(OC)c1 | inactive | –
COc1ccc(OCC(=O)Nc2cc(-c3nc4ccccc4o3)ccc2Cl)cc1 | inactive | –
COC(=O)c1ccccc1NC(=O)Cn1c(=O)n(-c2ccc(C)cc2)c(=O)c2ccccc21 | inactive | –
CCOc1ccc(C(=O)Nc2ccc(C(=O)OCc3cc(=O)n4c(C)csc4n3)cc2)cc1 | inconclusive: 56.2 µM [inhibitor, partial curve, poor fit] | –
Cc1coc(=N)n1CC(=O)c1ccc(Cl)cc1 | inconclusive: 79.4 µM [inhibitor, single point] | –
CCOC(=O)COc1ccc(C(c2c(C)[nH][nH]c2=O)c2c(C)[nH][nH]c2=O)cc1 | inconclusive: 89.1 µM [inhibitor, single point] | –
COc1ccc2nc(C)cc(N/N=C/c3ccc(F)cc3)c2c1 | inconclusive: 89.1 µM [inhibitor, partial curve, poor fit] | –
S=C(NCc1ccccc1)NNc1nc2ccccc2[nH]1 | inconclusive: 89.1 µM [inhibitor, partial curve, poor fit] | –
Cc1ccc(SC(CC(=O)c2ccc(F)cc2)C(=O)O)cc1 (stereo unspecified) | inconclusive: 17.8 µM [inhibitor, full curve, poor fit] | –
O=C(O)c1ccc2c(c1)N(Cc1ccc(F)cc1)C(=O)c1ccccc1S2=O (stereo unspecified) | inactive | –
CC(C)(C)C1C/C(=C/c2ccco2)C(=O)/C(=C/c2ccco2)C1 (stereo unspecified) | inconclusive: 50.1 µM [inhibitor, partial curve, poor fit] | –
CN(C)C(=S)Nc1nc2ccccc2s1 | inconclusive: 50.1 µM [inhibitor, partial curve, poor fit] | –
O=c1cc(CO)[nH]cc1OCc1ccccc1 | inconclusive: 79.4 µM [inhibitor, partial curve, poor fit] | –

Structure (SMILES) | Potency | activity change, negative = inhibition
O=C(NC1c2ccccc2-c2ccccc21)c1ccco1 | inconclusive: 70.8 µM [inhibitor, partial curve, poor fit] | –
N#Cc1c(NC(=O)CSc2nc3c(c(C(F)(F)F)n2)CCc2ccccc2-3)sc2c1CCCC2 | inconclusive: 89.1 µM [inhibitor, partial curve, poor fit] | –
CCOc1ccc(NC(=O)c2c(NCc3cccs3)sc3c2CCCCC3)cc1 | inconclusive: 79.4 µM [inhibitor, partial curve, poor fit] | –
O=c1c2ccccc2sn1-c1ccc(S(=O)(=O)N2CCOCC2)cc1 | inconclusive: 89.1 µM [inhibitor, partial curve, poor fit] | –
Cc1cc(NS(=O)(=O)c2ccc(NC(=S)NC(=O)c3cccnc3)cc2)no1 | inconclusive: 100 µM [inhibitor, single point] | –
Cc1ccc(Nc2nnc(SCC(=O)NCC3CCCO3)s2)cc1C (stereo unspecified) | inactive | –
Cc1c(NC(=O)C(C)OC(=O)/C=C/c2ccco2)c(=O)n(-c2ccccc2)n1C (stereo unspecified) | inconclusive: 50.1 µM [inhibitor, partial curve, poor fit] | –
O=c1n(-c2ccccc2)c(=O)n2n1CCCC2 | inactive | –
COc1ccc(CN2C(=O)Cc3c2nc(N)c2c(N)nc(N4CCOCC4)c(C#N)c32)cc1 | inconclusive: 79.4 µM [inhibitor, partial curve, poor fit] | –
C[C@H](CO)N1C[C@H](C)[C@@H](CN(C)Cc2ccc(Cl)c(Cl)c2)Oc2c(NC(=O)Cc3ccccc3)cccc2C1=O | inactive | –
Cc1nnc(N2CCN(c3cccc(C(F)(F)F)c3)CC2)c2c1nnn2Cc1ccccc1 | inactive | –
CN1CCN(S(=O)(=O)c2cccc(S(=O)(=O)c3ccc(Cl)c(Cl)c3)c2)CC1 | inactive | –
CCN(Cc1ccncc1)C(=O)c1cc(COc2ccc(OC)cc2Cl)on1 | inactive | –
Clc1ccc(OCCN2CCCCC2)c(Cl)c1 | inactive | –
CSc1ccccc1NC(=O)CN1CCCCC1C (stereo unspecified) | inconclusive: 79.4 µM [inhibitor, single point] | –
CCn1c(N)c(C(=O)NCc2ccc3c(c2)OCO3)sc1=S | inconclusive: 35.5 µM [inhibitor, partial curve, poor fit] | –
CC1CCN(C(=O)CSc2nc3ccccc3s2)CC1 | inconclusive: 89.1 µM [inhibitor, single point] | –
Cc1c(C#N)c2ncn(Cc3ccccn3)c(=O)c2n1-c1ccccc1 | – | inactive: -2.88% [at 11.4 µM]
COC(=O)c1ccc(COc2ccc3c(C)c(C)c(=O)oc3c2)o1 | inconclusive: 39.8 µM [inhibitor, full curve, poor fit] | –
Fc1ccccc1C1CC(c2ccco2)=Nc2ccccc2S1 (stereo unspecified) | inconclusive: 50.1 µM [inhibitor, partial curve, poor fit] | –
COc1ccc(NC(=O)c2c(NCc3cccs3)sc3c2CCCCC3)c(OC)c1 | inconclusive: 89.1 µM [inhibitor, partial curve, poor fit] | –
CCCOc1ccc(/C=c2\sc3nc(-c4ccco4)nn3c2=O)cc1OCC | inconclusive: 89.1 µM [inhibitor, single point] | –
